According to the supplement of paper PMC11417369:
This is one part of the list.

The sequences below were run on PF3D7_0420300 AP2 domain 1 (GST-tagged) (assay: gcPBM binding intensity (ln(normalized median fluorescence intensity)); higher = stronger DNA binding).
In short: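 An Agilent 4 × 180k array carrying primer-extended double-stranded 36-bp intergenic genomic probes and negative controls received GST-tagged P. falciparum DNA-binding domains expressed in E. coli, about 25 μg on average, for 1 h. The binding buffer contained 1× PBS, 1% milk, 0.2 mg/ml BSA, 0.5% salmon testes DNA and 0.03% Triton X-100. Binding intensity is the top Masliner-normalised natural-log median intensity across replicate spots of either probe orientation, read after Alexa488 anti-GST antibody staining and a 488 nm scan.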

Point of comparison: “TATATGTGGGTTTTTTTTATGTGTTTTTCTTTTTTT [CACACA_negctrl_site936]”, “gcPBM binding intensity (ln)” value 9.85. Against it:
- AAATAATTCATATGTTGTACAGTAATTAAATTTTCT [XGTACX_site6343] — lower, 9.08
- ATAATTAATCCAAAATGTACTTACATTTTATATGAA [XGTACX_site8888] — lower, 9.01
- ATAAGGATCAGACACAAACACACATATATATATATA [CACACA_site558] — lower, 9.63
- TTTTTTTTTCTTTGCACACAGATAACTTGAAATTTG [CACACA_site2185] — lower, 9.39
- TTTTATAATTTATCTAAAAAAAAATAAAATAAAATG [TGCATGCA_negctrl_site429] — lower, 8.67
- ATAAAATAAAATAAAAGTACATAAATATATATATAT [XGTACX_site6110] — lower, 9.46
- AATAAATAAATAAGTACACACATATAAATATAAATA [CACACA_site6271] — lower, 9.66
- TTCTACATGAAGTTATAAATTAATATTTTAATTTAT [XGTACX_negctrl_site134] — lower, 8.72
- TACTTTATTTTTTATACACACACAATATGTATATAT [CACACA_site9184] — higher, 9.89
- GTATTTCTTTAATATACACACACCAAAACAAAAAAA [CACACA_site579] — lower, 9.75
- ATATATATATATATATATATAATAAAAGATCATTTA [XGTACX_negctrl_site371] — lower, 9.09
- ATAATAAAAAGAAAAAGTACAAATGATTATGTTTGA [XGTACX_site3615] — lower, 9.53
- CAAGTATTATATTGCGCATGCAAAGAAGGACACAAA [TGCATGCA_site1024] — lower, 9.41
- TTATCTAGTACATACATACACACAACCATGTTATGA [CACACA_site3988] — lower, 9.46
- TACATAAATACATACACACACATATAACCAATGTAG [CACACA_site5243] — higher, 10
- TTTACATTTTAGGAAGTGCATATAATAAATACTATC — lower, 9.14
- CACATATATACACATACACACACACCCATACACCCA [CACACA_site8505] — higher, 10.2
- AGAGTACAAGTAAATACACACATATATATGAAAATA [CACACA_site1079] — lower, 9.8
- ATCACATTCCACGGTACACACTAAAAGAAAAATCAG [CACACA_site5907] — lower, 9.47
- ATTTATATTTAATATACACACATTATTTTTTTATAT [CACACA_site574] — lower, 9.57
- TATAATATGACAAGAAGTACATATATTTACATATAT [XGTACX_site1571] — lower, 9.19
- ATATAATATTTTAGAGTGCACCGATAACAATAAATA [GTGCAC_site9754] — lower, 9.39
- CATTTCATTAATAAATGTACTTGTGAAGAGAAAAAG [XGTACX_site3115] — lower, 8.98
- AAAAGATAAAAAGAAGTGCATAATAGGAACAAATAT [GTGCAC_site9717] — lower, 9.84
- ACAAAATTTACAAAATGTACAAAATATACAAAATGT [XGTACX_site3543] — lower, 9.33
- TAAGATATAAAAAATGTGCACATTAAAGTATTAATT — lower, 9.29
- TGTTATTCTGCATATACACACAAATAACAATTTAAA [CACACA_site6943] — lower, 9.32
- TCTTATGATGGAATGTTAAATATTACATTTTGTTTA [TGCATGCA_negctrl_site503] — lower, 9.1
- ATGAACATCCAATATACACACATATATATTTATATT [CACACA_site829] — lower, 9.62
- TAATGTTTCAAAATTTAATATACTACAAATATTATA [TGCATGCA_negctrl_site336] — lower, 8.88
- CAAAAAAAAAAAAAAACACACATTAAATTATAAAGA [CACACA_site2613] — lower, 9.45
- TTTATATAGAAACACACACACAAAAAAAAAAAAAAA [CACACA_site2646] — lower, 9.76
- TTACAAAAAAAAAGGCGCGGATGGGGGCAATAGCAA [CACACA_negctrl_site238] — higher, 10
- TTTTTCTTTCTATTTATCAATATTAAAAAAAAAAAA [CACACA_negctrl_site1629] — lower, 8.41
- TTACTCATGAAAGATACACACATTCGTTATTTATAT [CACACA_site7517] — lower, 9.54
- TATACATGTATATATTGTACATATGTTTTTTTTACA [XGTACX_site3300] — lower, 9.32
- TTTTTTCAAATTTTCTTTTTTCTTTTGTTTTTTTTG [CACACA_negctrl_site380] — lower, 9.19
- TTTTTATAATGATACATATATTATTTTATTCTTAAT [CACACA_negctrl_site124] — lower, 9.01
- CACAAAATAAATTAAACACACAACATCATATATGTA [CACACA_site846] — lower, 9.68
- GAAGAAGTTTAAAAAGCACACAAAAAAAAAAAAAAA [CACACA_site9088] — lower, 8.84
- TAAATTATTATCCCCTCACACACAAAAATAAAAAGA [CACACA_site2886] — higher, 9.93
- TATTTATAAACATACGCACACATTAATATATATATA [CACACA_site9314] — lower, 9.51
- AGATATTCTACTATGTGTACATATATATATATAATT [XGTACX_site5060] — lower, 9.4
- ATTATTATTAATCTTGTGCACATATATTTTAATTAG — lower, 9.33
- CTTGTAGATATAAAATGTACAAAAATAAATTGCACA [XGTACX_site4409] — lower, 9.09
- ATTATATAGAATTGTACATGCGAATTGTATAACGAT [TGCATGCA_site125] — lower, 9.4
- TATAAACGTATAATATGTACACACACATATATACAA [XGTACX_site1686] — lower, 9.69
- AAAAAAAAAAAAAAAAATATATTTATGAAATAAAAA [TGCATGCA_negctrl_site262] — lower, 8.93
- TATTTTTTTTTTTTTTTTTTTTTTATATATACATAT [CACACA_negctrl_site23] — lower, 9.26
- TTTCTATTCCATTCAACACACAAAAATGTATGCTTT [CACACA_site1072] — lower, 9.44
- AATGGATATTTCTTTATATATATCTTATTTGATTAT [XGTACX_negctrl_site284] — lower, 9.24
- TATAAATATCTGAATTGTACAGGTGAAAAAAAAAAT [XGTACX_site1867] — lower, 9.54
- TTTTTTATTATTATTATTTTTTATGTATAATAATGT [CACACA_negctrl_site631] — lower, 9.2
- TTACTTTTTTTTTTATGTACTTATATTTTTTACACT [XGTACX_site3503] — lower, 9.44
- TATGAATACATTTGTTGTACTTAAATTTCCTTTATT [XGTACX_site5374] — lower, 9.21
